Measured values published in the supplement of paper PMC11417369.
± gives the standard deviation of the averaged measurements. The list shows a part of the results.

System: PfAP2-EXP AP2 domain (GST-tagged)
Experiment: gcPBM binding intensity (ln(normalized median fluorescence intensity)); higher = stronger DNA binding
Method in brief: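 Alexa488 anti-GST antibody, scanned at 488 nm, detected GST-tagged P. falciparum DNA-binding domains that had been expressed in E. coli and incubated for 1 h on an Agilent 4 × 180k array. The array carried primer-extended double-stranded 36-bp intergenic genomic probes and negative controls. Binding intensity is the highest Masliner-normalised natural-log median intensity across replicate spots of either orientation of each probe.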

Sequence	gcPBM binding intensity (ln)
AACAAATACGGACACACACACACACTAGAAAAAAAA [CACACA_site4442]	8.69 ± 0.58
AACAAATTGAAACAATAATTGGAAAAAAAAAAAAAA [CACACA_negctrl_site1145]	8.21 ± 0.64
ATAAAATAAAAGGAATGTACTTTTTTTATTGTAATT [XGTACX_site4372]	8.25 ± 0.24
TTTTTTTAAATATATAAGATAAATTTATAAATAAAT [XGTACX_negctrl_site282]	7.85 ± 0.45
AAAAAAAATTTCTCAAGTACACAATTTTTTTTTGTT [XGTACX_site5874]	8.57 ± 0.27
TTTTATCATCACATTTGTCAAAAAAAAAAAAAAAAA [CACACA_negctrl_site1296]	8.04 ± 0.38
TTTTATTTTTATAACAGTACATAAGTAATTGTTCAA [XGTACX_site7574]	8.27 ± 0.3
TTATAATAAAAAAATTCCTAAGTCCGTATATATTAT [CACACA_negctrl_site1698]	8.11 ± 0.32
TTATGTTCATTATATGCACACATATATATAAATGTA [CACACA_site8947]	8.41 ± 0.24
GATTTTATAATTTCTACACACATATAAGAATATTCA [CACACA_site2802]	8.55 ± 0.33
ATATCAAACTAGAATGTGCGCATGCATTCAAGTTTT	8.685 ± 0.035
AAATTTGGATGACTCAATAAATTATAATATATATAT [CACACA_negctrl_site298]	9.28 ± 0.13
ATATTCTTTATATGCATACACACCTAATATAGGGAC [CACACA_site1533]	8.84 ± 0.28
AATCATTTGTTATAAGTCTAAAATTATTAGAATATT [XGTACX_negctrl_site151]	8.15 ± 0.6
TTCAATTTTTTAAAGCGTACATATAAAAGTTATATG [XGTACX_site731]	8.45 ± 0.34
ATTATTACATATAATGCATGTGCATATATTTTTATA [TGCATGCA_site701]	8.74 ± 0.14
TATATTTTATATTAGTGTACAAATTTCATTTTTCAT [XGTACX_site2204]	8.4 ± 0.33
AATATATATAAAAAAGTGCATTAGGATAACCATATA [GTGCAC_site9590]	8.83 ± 0.24
TATATATATATATTCACACATATAGTATTGTATTTA [CACACA_site5147]	10 ± 0.45
ATTTGTGACCACACAAATAAATAAATAAAAAAAAAA [TGCATGCA_negctrl_site328]	8.36 ± 0.41
AATATGAATATCTATACACACACATATATATACACA [CACACA_site8459]	8.47 ± 0.41
ATATATTTATATTTGTGTACATATTTATTATATTTA [XGTACX_site404]	8.46 ± 0.28

Sequence	gcPBM binding intensity (ln)
TAATAATAGAAACACACACACATTTTTAATAATACA [CACACA_site1216]	8.6 ± 0.44
AAGAAGAAAAACCATTGTACGAACTAACATATATAA [XGTACX_site3226]	8.66 ± 0.35
GGTATACATAATACTTGTACTAGGCAACAATAAGAT [XGTACX_site1437]	8.87 ± 0.5
TGTTAAAAGAAAAAAAGTACAAAAAATTATACATTT [XGTACX_site467]	8.15 ± 0.32
ATTATAAACCATAATTAACACACAAAATAAGTTACA [CACACA_site9057]	8.61 ± 0.37
AAAAAAAAAGAAAAATGTACATACATAAATATATAT [XGTACX_site5664]	8.57 ± 0.45
ATTCTATTTTTTATAAAACCATGTCATCAACATAGG [CACACA_negctrl_site237]	8.48 ± 0.43
AAAAAAAAAAAAAAAAGTACACAAATAGATTTATAT [XGTACX_site3727]	8.52 ± 0.18
CATCCATATAAAATATGTACATATATATATATATAT [XGTACX_site5859]	9.89 ± 0.44
TCCTTTCAACCATATATAATGACATGTACTCAAAAA [GTGCAC_negctrl_site417]	8.74 ± 0.35
TATTTTAGTAAAGGTGGTACTTTTAAGTTCATGTAT [XGTACX_site1854]	8.31 ± 0.44
GATAATTTATTTTTTCGTACACAAAATATAATATAT [XGTACX_site1470]	8.57 ± 0.24
TATATATCAAGACACACACACATATATTTATTTATA [CACACA_site7733]	8.81 ± 0.45
TTTTTTAAAGATTACTCAAAAAAATAAAAAAATAAA [GTGCAC_negctrl_site222]	8.26 ± 0.47
TCGTGAGAAAATATTACACACATTTACTATAGTATC [CACACA_site3444]	8.45 ± 0.39
TTTTTTTTTTTTTTTTGATACATTAACCTACAATGG [GTGCAC_negctrl_site625]	8.11 ± 0.45
TGAGTTCAACAAAGACGTACAAAACCAAAAATATAA [XGTACX_site8931]	8.88 ± 0.39
TAATTTTTCTTTTATTAACACACATATAAATAAATA [CACACA_site8935]	8.28 ± 0.43
AAAAATAAAAAAAGCACACACATATAAATAAATATA [CACACA_site6968]	8.69 ± 0.6
ATATATTTATATATTACACACAATATTGTAGACATA [CACACA_site4669]	8.63 ± 0.48
TATATGACAAGATAAAGTACAAATTTGTATATATAT [XGTACX_site3027]	8.97 ± 0.25
CCCAATAATTAAACAACACACATATTTATAGGTAAT [CACACA_site7445]	8.98 ± 0.83

Sequence	gcPBM binding intensity (ln)
ATATATATACTGTGTACACAAATATATATTATATAT [CACACA_site6104]	8.66 ± 0.057
TAAAATAAAAAGTTTACACACATATATAATTTTAAT [CACACA_site662]	8.3 ± 0.4
GAATTATATAATTAAAGTACATTGTTTATATAATCA [XGTACX_site7246]	8.31 ± 0.31
AACCATTTTAAATATGCACACAGATGCACTAACACA [CACACA_site8565]	9.05 ± 0.3
ATTTATATGGTTTGCACACATAACAACTATGGTTAT [CACACA_site3632]	8.9 ± 0.36
AAATTCCACGGACACACACACATATAAATAAATAAA [CACACA_site4811]	8.73 ± 0.45
TGTAGTCTGGAGAAAAGTACATAGTATCTGGTAGCT [XGTACX_site2031]	8.63 ± 0.4
GAAAGAAATAAAGGTGGTACATAAATAAAAACTAAG [XGTACX_site4826]	9 ± 0.51
TTTACACGTACGTGTACACACAAAAATATGTTTTTA [CACACA_site995]	8.82 ± 0.33
AACATAAAAAAAATATGTACATATATAATATATATA [XGTACX_site3764]	8.85 ± 0.23
AATATATGGTTTCATGATATTAAATACAATTTAATG [CACACA_negctrl_site1503]	8.13 ± 0.42
CTATAATTATGATGAAGTACATATGAGTTCAAAAAA [XGTACX_site3070]	8.7 ± 0.33
ATATATATATGTATATGTACTTATATTATTGTTTGT [XGTACX_site1466]	9.55 ± 0.12
ACATAATGCTAGACACGTACGTACATCCGTGAGGTT [XGTACX_site4156]	8.78 ± 0.39
GTAAAAGAACGGCATGCATGAAAAATATTACACATG [TGCATGCA_site143]	9.38 ± 0.38
TTATTATTATATTCTACATGCAGTTTGTGTAGAACA [TGCATGCA_site455]	8.87 ± 0.17
TGAACTCAACAAAGGGTGCATAACAAAAATAGACGT	9.565 ± 0.021
TTTCAATAATAAAAAACACACACAAAAAAAAATAAT [CACACA_site8905]	8.93 ± 0.68
AAAAATATAAACACCAGTACACAAACCTATAATGGA [XGTACX_site3846]	8.76 ± 0.49
AAAGTAAATTTAAGCACACACAACGAATTTTTATAC [CACACA_site1959]	8.72 ± 0.092
TGTACGAGTCGTAGAGTGCAGTCTGGAGAAGAGTAC [GTGCAC_site9684]	9.22 ± 0.4
AAAATTTATAAAAGCACACAAAATAAAAAAAAATGA [CACACA_site1491]	8.69 ± 0.52

Sequence	gcPBM binding intensity (ln)
TTTTGTTATATACAATAGATCAGAAGAAATGAAGTT [CACACA_negctrl_site1579]	8.69 ± 0.49
TTATAATATGTATACACACACATATATAAATATATA [CACACA_site2326]	8.3 ± 0.34
CTTACGTATTAAGTGTGTCCGTAGTGTTCATAGTTC [XGTACX_site8913]	8.54 ± 0.49
CAATGTTAACATATTACACACATATGTATATAGAAT [CACACA_site2732]	8.88 ± 0.4
TATATATGTATATATTTTATAAGTATGCAAGAAAAT [TGCATGCA_negctrl_site486]	8.89 ± 0.4
ATATTGGAATAAATTTGTACATATATATATTATTCA [XGTACX_site916]	8.41 ± 0.32
TTGCATCTACATTTATGTACATATCTTATGATAAAT [XGTACX_site2146]	8.61 ± 0.3
ACAATAATTTCCATCACACATATATTTATATATTAC [CACACA_site6003]	8.62 ± 0.39
ATACATATTCTTATTTGTACTTATTATAAAATGGTC [XGTACX_site6584]	8.41 ± 0.29
TAACTGATATATAAAACACACATCATAAAAATATAA [CACACA_site6499]	8.42 ± 0.55
ACACATATAAATAAAACATGCATATGTAAATATATA [TGCATGCA_site403]	8.64 ± 0.48
TATAATATAATATTTTGTACATATGATAAAAAAAAA [XGTACX_site6858]	8.48 ± 0.48
AATTATACTCACGTTACACACACACTATATATATAT [CACACA_site9375]	9.89 ± 0.26
TTGAACCTGATAAATACACACAATATAGATTTTTTT [CACACA_site7091]	8.09 ± 0.35
TCAAAATGTTACAAATTATGTTGGCTAAAATTTTAA [TGCATGCA_negctrl_site188]	8.12 ± 0.4
AAATATATCTTCTTTGCACACTTAAAGGGAAGTGAT [CACACA_site343]	8.56 ± 0.33
AGATATATTTTTTAAATTTAAAAATTATAAAATTTA [CACACA_negctrl_site533]	8.07 ± 0.42
GCATATAAAATAAATCGTACATGTAAAACATAATTA [XGTACX_site7077]	8.46 ± 0.32
GGCAGCAATTTAGTTACACACATATATAGGTATACA [CACACA_site76]	8.69 ± 0.4
GATAGAAAAAAATAATGTACACACACATATATGTTT [XGTACX_site392]	8.57 ± 0.28
TACACATACCCATACACACGCATAGAAACATACGAA [CACACA_site5212]	8.51 ± 0.49
TATTTTTATTTTAATTGTACTTTTTAATTAATAATA [XGTACX_site8302]	8.6 ± 0.23
